No constants are given. Whether binding was seen depends on the method and setting. Binding seen in cells or lysates may run through a third protein. Some entries that bind do so weakly or less than the wild type. For some of these results: Tags and fused reporters may be left off the sequences shown.

Sequences of proteins named here, by UniProt entry; tags and fusion partners are left off. A change or cut given only in a name is not applied to a line headed by its entry.
UniProt P07355: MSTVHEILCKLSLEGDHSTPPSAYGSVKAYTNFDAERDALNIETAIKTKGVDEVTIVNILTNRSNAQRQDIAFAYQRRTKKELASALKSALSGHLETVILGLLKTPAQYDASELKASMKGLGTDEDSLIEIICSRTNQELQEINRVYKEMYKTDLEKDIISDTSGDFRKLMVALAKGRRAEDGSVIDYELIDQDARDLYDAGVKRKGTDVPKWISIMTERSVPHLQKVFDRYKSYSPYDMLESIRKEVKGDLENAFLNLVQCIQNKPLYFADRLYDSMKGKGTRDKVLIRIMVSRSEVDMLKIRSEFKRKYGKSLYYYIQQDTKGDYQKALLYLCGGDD

The target of assay [1] is His/Xpress-tagged p50 subunit of NF-κB (UniProt P19838). Kind of assay: pull-down; His/Xpress-p50 and cFLAG-annexin cotransfected into HEK-293; lysate in Ni-NTA lysis buffer (20 mM NaH2PO4, 300 mM NaCl, 5 mM imidazole, 0.05% Tween 20); Ni-NTA-agarose beads, 4 °C overnight; western blot.
The target in assay [2] is endogenous p50 subunit of NF-κB of Mia-Paca2 cells (human (endogenous in Mia-Paca2)) (UniProt P19838). Kind of assay: co-IP; endogenous proteins, Mia-Paca2 extracts; IP with anti-p50 rabbit polyclonal IgG on protein A/G agarose, 4 °C overnight, lysis buffer with 1 mM EDTA and 1% NP-40; blot with anti-ANXA2.
Assay [3] concerns the target GST-tagged p50 subunit of NF-κB (UniProt P19838). Briefly: pull-down; GST-p50 and cFLAG-ANXA2 cotransfected into HEK-293; NP-40 lysis buffer (137 mM NaCl, 1 mM EDTA, 10% glycerol, 1% NP-40); Glutathione HiCap Matrix, 4 °C overnight; western blot.
The target of assay [4] is endogenous p50 subunit of NF-κB of HeLa cells (human (endogenous in HeLa)) (UniProt P19838). Briefly: co-IP; endogenous proteins, HeLa extracts, cells with or without 10 ng/ml TNF-α for the indicated time; IP with anti-p50 rabbit polyclonal IgG on protein A/G agarose, 4 °C overnight, lysis buffer with 1 mM EDTA and 1% NP-40; blot with anti-ANXA2.
The target of assay [5] is T1, His/Xpress-tagged p50 subunit of NF-κB, P19838.
T1 chain: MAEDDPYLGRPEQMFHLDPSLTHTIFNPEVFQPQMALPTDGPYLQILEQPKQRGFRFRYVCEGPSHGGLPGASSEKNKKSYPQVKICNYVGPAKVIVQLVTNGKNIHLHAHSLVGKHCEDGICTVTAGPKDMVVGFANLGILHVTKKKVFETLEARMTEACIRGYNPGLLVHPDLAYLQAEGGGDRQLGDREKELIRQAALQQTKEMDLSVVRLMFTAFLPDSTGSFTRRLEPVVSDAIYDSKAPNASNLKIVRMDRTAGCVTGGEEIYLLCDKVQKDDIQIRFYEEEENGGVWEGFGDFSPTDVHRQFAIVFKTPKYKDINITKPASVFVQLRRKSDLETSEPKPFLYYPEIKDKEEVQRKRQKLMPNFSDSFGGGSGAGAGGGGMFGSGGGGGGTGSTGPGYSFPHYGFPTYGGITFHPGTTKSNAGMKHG
Kind of assay: pull-down; His/Xpress-p50 and cFLAG-annexin cotransfected into HEK-293; lysate in Ni-NTA lysis buffer (20 mM NaH2PO4, 300 mM NaCl, 5 mM imidazole, 0.05% Tween 20); Ni-NTA-agarose beads, 4 °C overnight; western blot. The note with it: remark: other sources report otherwise.

As to “N-terminal deletion mutant of ANXA2 (lacking amino acids 1-23) (from UniProt P07355 24-339) (domain or fragment)”, the binding result in assay [1] is given as “no binding”.

With “endogenous annexin A2 of Mia-Paca2 cells (from UniProt P07355 1-339)”, in assay [2], the binding result is reported as “binds”.

Take “C-terminal FLAG-tagged human annexin A2 (wild type) (from UniProt P07355 1-339)”: the binding entry in assay [3] and in assay [1] was “binds” each time.

Turning to “endogenous annexin A2 of HeLa cells (from UniProt P07355 1-339)”, in assay [4], the binding result is on record as “binds”.

B1: C-terminal FLAG-tagged human annexin A4, P09525 1-319 (protein)
chain: MATKGGTVKAASGFNAMEDAQTLRKAMKGLGTDEDAIISVLAYRNTAQRQEIRTAYKSTIGRDLIDDLKSELSGNFEQVIVGMMTPTVLYDVQELRRAMKGAGTDEGCLIEILASRTPEEIRRISQTYQQQYGRSLEDDIRSDTSFMFQRVLVSLSAGGRDEGNYLDDALVRQDAQDLYEAGEKKWGTDEVKFLTVLCSRNRNHLLHVFDEYKRISQKDIEQSIKSETSGSFEDALLAIVKCMRNKSAYFAEKLYKSMKGLGTDDNTLIRVMVSRAEIDMLDIRAHFKRLYGKSLYSFIKGDTSGDYRKVLLVLCGGDD
For the molecule B1, the binding entry in assay [5] was “binds”.

B2: C-terminal FLAG-tagged human annexin A1 (protein, UniProt P04083 1-346)
chain: MAMVSEFLKQAWFIENEEQEYVQTVKSSKGGPGSAVSPYPTFNPSSDVAALHKAIMVKGVDEATIIDILTKRNNAQRQQIKAAYLQETGKPLDETLKKALTGHLEEVVLALLKTPAQFDADELRAAMKGLGTDEDTLIEILASRTNKEIRDINRVYREELKRDLAKDITSDTSGDFRNALLSLAKGDRSEDFGVNEDLADSDARALYEAGERRKGTDVNVFNTILTTRSYPQLRRVFQKYTKYSKHDMNKVLDLELKGDIEKCLTAIVKCATSKPAFFAEKLHQAMKGVGTRHKALIRIMVSRSEIDMNDIKAFYQKMYGISLCQAILDETKGDYEKILVALCGGN
As for B2, in assay [1], the binding result is “no binding”.

(Values after article PMC4669756.)
